Laboratory results published in publication PMC4751553.
No constants are given. Whether binding was seen depends on the method and setting. Binding seen in cells or lysates may run through a third protein. Sequences can lack the tags named with a protein.

B1: Fus2p^∆580–582 (GFP-tagged) (protein, UniProt Q05670 1-677)
chain: MFKTSYNLYDLNYPKNDSLTPIRDYKNDYFHKNDDKLPEIVRKPTRKLSKHENKLNDKKFTNKRPASLDLHSIVESLSNKKIYSPINTEIFQNVVRLNLSPQIPNSPHEGCKFYKIVQEFYLSEVEYYNNLLTANNVYRKALNSDPRFKNKLVKLDSSDELLLFGNIDTIASISKILVTAIKDLLLAKQRGKMLDANEWQKIFTKNEVQQQLYSTFDISEAFEQHLLRIKSTYTSYFVSHQKQMELFTTLRMNKNHFFNKWYEYCLKESGCIKLEDILKSPMKRLTQWIDTLETLESCYEDILSPELGLKLSPTRRKYSLFSNKLETEVSEYKSNSMYNFSLTPSEIIQSYDEDQFTHLLKPPDKQNKNICNASRQESNLDNSRVPSLLSGSSSYYSDVSGLEIVTNTSTASAEMINLKMDEETEFFTLADHISKFKKVMKGLLELKKNLLKNDLSGIIDISLRRINAWKKVIECERPSGAFFAHDNLISTMCSSYIDKLHEQKNQVTILKLTELETDVMNPLERIIAHCTTVKSKLKDLQALKKDYMLFLQEKKANVRDIKRDLLGMHFQNLQNQMKRVFITLIHDTIECILLNYIKVFLKYLEIIAGGKKYLQKDLENMSLNDSIATGQIKNLDILQCYSKSRYMTKRMVRKDWPFPGDPSGSRVVRKLFEL
B2: Fus2p-GFP truncated to residue 580 (domain or fragment, UniProt Q05670 1-580)
chain: MFKTSYNLYDLNYPKNDSLTPIRDYKNDYFHKNDDKLPEIVRKPTRKLSKHENKLNDKKFTNKRPASLDLHSIVESLSNKKIYSPINTEIFQNVVRLNLSPQIPNSPHEGCKFYKIVQEFYLSEVEYYNNLLTANNVYRKALNSDPRFKNKLVKLDSSDELLLFGNIDTIASISKILVTAIKDLLLAKQRGKMLDANEWQKIFTKNEVQQQLYSTFDISEAFEQHLLRIKSTYTSYFVSHQKQMELFTTLRMNKNHFFNKWYEYCLKESGCIKLEDILKSPMKRLTQWIDTLETLESCYEDILSPELGLKLSPTRRKYSLFSNKLETEVSEYKSNSMYNFSLTPSEIIQSYDEDQFTHLLKPPDKQNKNICNASRQESNLDNSRVPSLLSGSSSYYSDVSGLEIVTNTSTASAEMINLKMDEETEFFTLADHISKFKKVMKGLLELKKNLLKNDLSGIIDISLRRINAWKKVIECERPSGAFFAHDNLISTMCSSYIDKLHEQKNQVTILKLTELETDVMNPLERIIAHCTTVKSKLKDLQALKKDYMLFLQEKKANVRDIKRDLLGMHFQNLQNQMKRE
B3: Fus2p^458–677 (GFP-tagged N-terminal truncation) (domain or fragment, UniProt Q05670 458-677)
chain: IIDISLRRINAWKKVIECERPSGAFFAHDNLISTMCSSYIDKLHEQKNQVTILKLTELETDVMNPLERIIAHCTTVKSKLKDLQALKKDYMLFLQEKKANVRDIKRDLLGMHFQNLQNQMKRELPVFITLIHDTIECILLNYIKVFLKYLEIIAGGKKYLQKDLENMSLNDSIATGQIKNLDILQCYSKSRYMTKRMVRKDWPFPGDPSGSRVVRKLFEL
B4: Fus2p^415–626 F436A fused to GFP (domain or fragment, UniProt Q05670 415-626)
chain: MINLKMDEETEFFTLADHISKAKKVMKGLLELKKNLLKNDLSGIIDISLRRINAWKKVIECERPSGAFFAHDNLISTMCSSYIDKLHEQKNQVTILKLTELETDVMNPLERIIAHCTTVKSKLKDLQALKKDYMLFLQEKKANVRDIKRDLLGMHFQNLQNQMKRELPVFITLIHDTIECILLNYIKVFLKYLEIIAGGKKYLQKDLENMSL
B5: Fus2p^415–626 F584A fused to GFP (domain or fragment, UniProt Q05670 415-626)
chain: MINLKMDEETEFFTLADHISKFKKVMKGLLELKKNLLKNDLSGIIDISLRRINAWKKVIECERPSGAFFAHDNLISTMCSSYIDKLHEQKNQVTILKLTELETDVMNPLERIIAHCTTVKSKLKDLQALKKDYMLFLQEKKANVRDIKRDLLGMHFQNLQNQMKRELPVAITLIHDTIECILLNYIKVFLKYLEIIAGGKKYLQKDLENMSL
B6: Fus2p^415–626 Y599A fused to GFP (domain or fragment, UniProt Q05670 415-626)
chain: MINLKMDEETEFFTLADHISKFKKVMKGLLELKKNLLKNDLSGIIDISLRRINAWKKVIECERPSGAFFAHDNLISTMCSSYIDKLHEQKNQVTILKLTELETDVMNPLERIIAHCTTVKSKLKDLQALKKDYMLFLQEKKANVRDIKRDLLGMHFQNLQNQMKRELPVFITLIHDTIECILLNAIKVFLKYLEIIAGGKKYLQKDLENMSL

Biological target: T1, Rvs161p tagged with an internal FLAG tag inserted after amino acid 85 (wild type) (S. cerevisiae) (UniProt P25343)
T1 sequence: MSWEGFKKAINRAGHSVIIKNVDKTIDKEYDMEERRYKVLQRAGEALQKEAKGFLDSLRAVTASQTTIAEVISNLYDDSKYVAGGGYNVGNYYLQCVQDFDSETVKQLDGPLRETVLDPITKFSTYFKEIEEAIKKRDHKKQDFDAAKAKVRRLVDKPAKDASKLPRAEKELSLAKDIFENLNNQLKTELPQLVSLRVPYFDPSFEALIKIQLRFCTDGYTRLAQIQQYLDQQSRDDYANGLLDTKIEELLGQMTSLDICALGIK
Experiment: co-IP; lysates of pheromone-induced S. cerevisiae (galactose medium, 10 μg/ml pheromone, 2 hr); Rvs161p-FLAG held on anti-FLAG M2 affinity gel, 1 hr at 4°, 50 mM Tris pH 7.4, 150 mM NaCl, 0.5% Triton X-100; bound Fus2p-GFP detected by western blot with anti-GFP

binding, no binding:
B1
B2
B3
B4
B5
B6
